{"source": "the supplement of paper PMC4604168 (melanoma cell lines)", "note": "The other results are listed elsewhere or left out. Single values are uncertain, as repeats are few or missing.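 Note: cell number obtained by counting DAPI-stained nuclei in high-throughput microscope images with image analysis software, screen run in 1,536-well plates.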", "data": [{"test_system": "501Mel", "experiment": "cell count relative to DMSO control; melanoma cells; higher = more viable cells", "settings": "library dose: low library concentration; 72 h", "units": {"cell count": "%"}, "values": [{"smiles": "COc1ccc(C2=N[C@@H](c3ccc(Cl)cc3)[C@@H](c3ccc(Cl)cc3)N2C(=O)N2CCNC(=O)C2)c(OC(C)C)c1", "note": "[Nutlin-3] + C=C(c1ccc(C(=O)O)cc1)c1cc2c(cc1C)C(C)(C)CCC2(C)C [Bexarotene] (first compound 0.1 µM, partner dose 2 µM)", "cell count": 62.1}, {"smiles": "Cc1cc(Nc2cc(N3CCN(C)CC3)nc(/C=C/c3ccccc3)n2)n[nH]1", "note": "+ Cc1nc(Nc2ncc(C(=O)Nc3c(C)cccc3Cl)s2)cc(N2CCN(CCO)CC2)n1 [dasatanib] (first compound 0.04 µM, partner dose 0.004 µM)", "cell count": 50.7}, {"smiles": "Cc1cn(-c2cc(NC(=O)c3ccc(C)c(Nc4nccc(-c5cccnc5)n4)c3)cc(C(F)(F)F)c2)cn1", "note": "[nilotinib] + CC(=O)O[C@@]12CO[C@@H]1C[C@H](O)[C@@]1(C)C(=O)[C@H](O)C3=C(C)[C@@H](OC(=O)[C@H](O)[C@@H](NC(=O)OC(C)(C)C)c4ccccc4)C[C@@](O)([C@@H](OC(=O)c4ccccc4)[C@H]21)C3(C)C [Docetaxel] (first compound 0.2 µM, partner dose 0.0001 µM)", "cell count": 98.2}, {"smiles": "Cn1c(=O)n(-c2ccc(C(C)(C)C#N)cc2)c2c3cc(-c4cnc5ccccc5c4)ccc3ncc21", "note": "+ CO[C@H]1C[C@@H]2CC[C@@H](C)[C@@](O)(O2)C(=O)C(=O)N2CCCC[C@H]2C(=O)O[C@H]([C@H](C)C[C@@H]2CC[C@@H](OCCO)[C@H](OC)C2)CC(=O)[C@H](C)/C=C(\\C)[C@@H](O)[C@@H](OC)C(=O)[C@H](C)C[C@H](C)/C=C/C=C/C=C/1C [everolimus] (first compound 0.004 µM, partner dose 0.02 µM)", "cell count": 24.9}, {"smiles": "COc1ccc(C2=N[C@@H](c3ccc(Cl)cc3)[C@@H](c3ccc(Cl)cc3)N2C(=O)N2CCNC(=O)C2)c(OC(C)C)c1", "note": "[Nutlin-3] + C[C@]1(c2nc3c(C(N)=O)cccc3[nH]2)CCCN1 [Veliparib] (first compound 0.1 µM, partner dose 1.4 µM)", "cell count": 51.6}, {"smiles": "COc1ccc(C2=N[C@@H](c3ccc(Cl)cc3)[C@@H](c3ccc(Cl)cc3)N2C(=O)N2CCNC(=O)C2)c(OC(C)C)c1", "note": "[Nutlin-3] + Nc1cccc2c1CN(C1CCC(=O)NC1=O)C2=O [lenalidomide] (first compound 0.1 µM, partner dose 1 µM)", "cell count": 117}, {"smiles": "CC(C)C[C@H](NC(=O)[C@H](Cc1ccccc1)NC(=O)c1cnccn1)B(O)O", "note": "[Bortezomib] + O=C(O)[C@@H]1[O][Sb](=[O])([O][Sb]2(=[O])[O][C@H]([C@H](O)CO)[C@H](O)[C@H](C(=O)O)[O]2)[O][C@H]([C@H](O)CO)[C@@H]1O [stibogluconate] (first compound 0.001 µM, partner dose 2 µM)", "cell count": 12.7}, {"smiles": "COc1ccc(C2=N[C@@H](c3ccc(Cl)cc3)[C@@H](c3ccc(Cl)cc3)N2C(=O)N2CCNC(=O)C2)c(OC(C)C)c1", "note": "[Nutlin-3] + Nc1ccn([C@@H]2O[C@H](CO)[C@@H](O)C2(F)F)c(=O)n1 [gemcitabine] (first compound 0.1 µM, partner dose 0.0004 µM)", "cell count": 67.4}, {"smiles": "Cc1cc(Nc2cc(N3CCN(C)CC3)nc(/C=C/c3ccccc3)n2)n[nH]1", "note": "+ CCCS(=O)(=O)Nc1ccc(F)c(C(=O)c2c[nH]c3ncc(Cl)cc23)c1F [PLX4720] (first compound 0.04 µM, partner dose 0.08 µM)", "cell count": 105}, {"smiles": "Cn1c(=O)n(-c2ccc(C(C)(C)C#N)cc2)c2c3cc(-c4cnc5ccccc5c4)ccc3ncc21", "note": "+ COc1ccc(Cl)c(Nc2nc3ccccc3nc2NS(=O)(=O)c2cccc(NC(=O)C(C)(C)N)c2)c1 [XL147] (first compound 0.004 µM, partner dose 0.8 µM)", "cell count": 64.2}, {"smiles": "Cc1cn(-c2cc(NC(=O)c3ccc(C)c(Nc4nccc(-c5cccnc5)n4)c3)cc(C(F)(F)F)c2)cn1", "note": "[nilotinib] + NC(=O)c1ccc(N(C(N)=O)c2c(F)cccc2F)nc1-c1ccc(F)cc1F [VX702] (first compound 0.2 µM, partner dose 0.4 µM)", "cell count": 92.1}, {"smiles": "Cc1cn(-c2cc(NC(=O)c3ccc(C)c(Nc4nccc(-c5cccnc5)n4)c3)cc(C(F)(F)F)c2)cn1", "note": "[nilotinib] + O=C(O)c1ccc2c(c1)nc(Nc1cccc(Cl)c1)c1ccncc12 [CX4945] (first compound 0.2 µM, partner dose 0.4 µM)", "cell count": 93.9}]}]}
